Reference: patent US11806359B2 (priority 2020, dated 2023)

Key:
[1] = test system: Zika virus (ZIKV strain PRVABC59); format: cell-based; details: Vero E6 cells; for antiviral activity against Zika virus: MOI 0.2, 1 hr exposure, 48 hr incubation
Zikavirus = details: Barrows et al. 2016; cited from earlier work
huPBMCs = experiment: Cytotoxicity/apoptosis in primary huPBMCs, Annexin V-FITC/PI staining; format: cell-based, human; details: lowest concentration, 72 hrs
Method: Primary buffy-coat huPBMCs were isolated and stimulated with phytohemagglutinin (PHA) and cultured in the presence of recombinant human interleukin-2 (hIL-2). The cells were then treated for 72 hrs with increasing concentrations of oleandrin or a N. oleander extract, or with increasing volumes of the Vehicle. The samples were subsequently stained with Annexin V-FITC and PI and the relative percentages of apoptotic (i.e., Annexin V-FITC and/or PI-positive) cells per field were quantified by confocal fluorescence-microscopy and counting in-triplicate.
Cytotoxic effects of the Vehicle control, N. oleander extract, and the oleandrin compound were assessed by treating primary huPBMCs for 72 hrs, and then the cultures were stained with Annexin V-FITC and PI. The relative percentages of apoptotic (i.e., Annexin V-FITC and/or PI-positive) cells were quantified by fluorescence-microscopy and counting triplicate visual fields using a 20× objective lens. The total numbers of cells were determined using DIC phase-contrast microscopy. Cyclophosphamide (50 μM)-treated cells were included as a positive control for apoptosis. NA indicates the number of cells in this sample was too low for accurate assessment due to higher toxicity. […]

SMILES	antiviral activity against Zika virus [1]	antiviral activity against Zika virus (Zikavirus)	antiviral activity against Zika virus relative to digoxin ([1]; MOI 0.2) [fold]	cytotoxicity in huPBMCs (huPBMCs)
C[C@H]1O[C@@H](O[C@H]2[C@@H](O)C[C@H](O[C@H]3[C@@H](O)C[C@H](O[C@H]4CC[C@@]5(C)[C@H](CC[C@@H]6[C@@H]5C[C@@H](O)[C@]5(C)[C@@H](C7=CC(=O)OC7)CC[C@]65O)C4)O[C@@H]3C)O[C@@H]2C)C[C@H](O)[C@@H]1O [digoxin, reference compound]	antiviral activity	demonstrates antiviral activity against Zikavirus	–	–
CO[C@H]1C[C@H](O[C@H]2CC[C@@]3(C)[C@H](CC[C@@H]4[C@@H]3CC[C@]3(C)[C@@H](C5=CC(=O)OC5)[C@@H](OC(C)=O)C[C@]43O)C2)O[C@@H](C)[C@@H]1O [oleandrin]	antiviral activity	–	~8	35-37%
